{"source": "PubChem BioAssay AID445", "about": "(National Center for Advancing Translational Sciences (NCATS), 2006)", "note": "Screen size: about 110,000 compounds; about 40 (0.04%) were called active. The shares of active, inactive and inconclusive entries below differ from those in the screen. The call rests on the fitted dose curve; in most records, active means well fitted curve in the direction sought with a large enough effect in the signal ratio (not every such curve was filed as active); inconclusive means small, poorly fitted or top-dose-only effect, or a change in a side signal; inactive means flat fitted curve, though single readings scatter; the % refers to the signal ratio. Where the call is inconclusive, the potency comes from a doubtful curve fit. Potency means the concentration at half of the fitted maximal effect.", "data": [{"experiment": "IkB Signaling;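 on IkBa stabilization activation: 0% = basal untreated cells and 100% = reference inhibitor full response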", "conditions": "ABC-DLBCL IkBa-CBG/CBR dual luciferase ratio (green luciferase fused to IkBa over red control in OCI-Ly3 lymphoma cells), 4 h; IkBa stabilization activation: at 57.1 µM (top of the series), scaled: untreated 0%, proteasome inhibitor 100% unless noted", "outline": "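Curves were fitted separately to fusion (green), unfused (red) and ratio luminescence, then classed by r2, magnitude and activity. Cells: OCI-Ly3, 4 h compound plus doxycycline at 37C; 10 uM MG-132 defined full response.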", "values": [{"molecule": "CCSC1=C(C#N)C2(CCCC2)C(C#N)=C(N)N1", "IkBa stabilization activation": "inconclusive: 5.04% [signal inhibitor]"}, {"molecule": "Fc1ccc(Nc2nc(SCc3ccc(Cl)cc3)nc3ccccc23)cc1", "IkBa stabilization activation": "inconclusive: 0.122% [signal inhibitor]"}, {"molecule": "Cc1ccccc1C(=O)NCC(c1ccc(N(C)C)cc1)N1CCCC1", "note": "(stereo not given)", "Potency": "inconclusive: 1.58 µM [signal inhibitor, full curve]"}, {"molecule": "O=S(=O)(NCC(c1ccco1)S(=O)(=O)c1ccccc1)c1cc(F)ccc1F", "note": "(stereo not given)", "IkBa stabilization activation": "inactive"}, {"molecule": "Cc1cccc(-c2noc(-c3cccnc3NCc3ccccc3Cl)n2)c1", "IkBa stabilization activation": "inconclusive: 2.77% [signal inhibitor]"}, {"molecule": "CCC(=O)Nc1cccc(NC(=O)COc2ccc(OC)cc2)c1", "IkBa stabilization activation": "inactive"}, {"molecule": "CCc1ccccc1N1CC(c2nc3ccccc3n2CCCCOc2ccccc2OC)CC1=O", "note": "(stereo not given)", "IkBa stabilization activation": "inconclusive: -2.05% [signal inhibitor]"}, {"molecule": "NCCOB(c1ccccc1)c1ccccc1", "IkBa stabilization activation": "inactive"}, {"molecule": "COc1cccc(-c2cc(C(F)(F)F)n3nc(-c4ccc(C)cc4)cc3n2)c1", "IkBa stabilization activation": "inactive"}, {"molecule": "O=C1CCc2cc(S(=O)(=O)NC(C(=O)Nc3ccc(F)cc3)c3ccccc3)ccc2N1", "note": "(stereo not given)", "IkBa stabilization activation": "inconclusive: 2.4% [signal inhibitor]"}, {"molecule": "Cc1nc2nc(CNC(=O)c3cccc(F)c3)nn2c(C)c1CCC(=O)Nc1ccc(F)cc1", "IkBa stabilization activation": "inactive"}, {"molecule": "COc1cccc(Cn2c(=O)c(-c3cccs3)nc3cnc(OC)nc32)c1", "IkBa stabilization activation": "inactive: 0.908% [at 11.4 µM, scaled: untreated 0%, proteasome inhibitor 100%]"}, {"molecule": "O=C1OCCC1Sc1nc2ccccc2n1-c1ccccc1", "note": "(stereo not given)", "IkBa stabilization activation": "inactive"}, {"molecule": "Cc1cccc(N2CCN(CC(=O)NCC3CCCCC3)CC2)c1C", "IkBa stabilization activation": "inconclusive: 1.95% [signal inhibitor]"}, {"molecule": "COc1ccc(-c2nc(=S)[nH][nH]2)cc1", "IkBa stabilization activation": "inactive"}, {"molecule": "CC(C)c1cnc2c(c1SCc1ccc([N+](=O)[O-])cc1)c(=O)n(C)c(=O)n2C", "IkBa stabilization activation": "inconclusive: 1.43% [signal inhibitor]"}, {"molecule": "CN(CCCNC(=O)c1cc2c(Cl)nc3ccccc3c2s1)Cc1ccccc1", "IkBa stabilization activation": "inconclusive: -1.66% [signal inhibitor]"}, {"molecule": "Cc1ccccc1-c1nccc(NCc2cccnc2)n1", "IkBa stabilization activation": "inactive: -0.701% [at 11.4 µM, scaled: untreated 0%, proteasome inhibitor 100%]"}, {"molecule": "COC(=O)c1c(NC(=O)c2cc3ccccc3c(=O)o2)sc2c1CCCC2", "IkBa stabilization activation": "inconclusive: 11.1% [signal inhibitor]"}, {"molecule": "CCN(CC)CCNC(=O)c1c(C)oc2ncnc(N3CCOCC3)c12", "IkBa stabilization activation": "inactive"}, {"molecule": "O=C(O)[C@H]1O[C@H]1C(=O)O", "IkBa stabilization activation": "inactive: 0.368% [at 11.4 µM, scaled: untreated 0%, proteasome inhibitor 100%]"}, {"molecule": "COc1ccc(CCNC(=O)c2ccc(Nc3nc4ccccc4n4nnnc34)cc2)cc1OC", "Potency": "inconclusive: 12.6 µM [signal inhibitor, partial curve]"}, {"molecule": "Cc1cccc(N(CC(O)Cn2c3ccccc3c3ccccc32)S(=O)(=O)c2ccc(F)cc2)c1", "note": "(stereo not given)", "IkBa stabilization activation": "inconclusive: 1.88% [signal inhibitor]"}, {"molecule": "Cc1ccccc1CS(=O)(=O)CCC(=O)NCCCN1CCN(c2ccccc2F)CC1", "IkBa stabilization activation": "inactive"}, {"molecule": "O=C1CC(c2ccco2)CC(O)=C1C=NCC1NCCc2ccccc21", "note": "(stereo not given)", "Potency": "inconclusive: 25.1 µM [rising, partial curve]"}, {"molecule": "Cc1ccccc1S(=O)Cc1ccc(C(=O)N2CCN(c3cccc(C)c3C)CC2)o1", "note": "(stereo not given)", "IkBa stabilization activation": "inactive"}, {"molecule": "CCOC(=O)N1CCN(C(=O)CCCn2nc(C)c3sc4ccccc4c3c2=O)CC1", "IkBa stabilization activation": "inconclusive: 0.693% [signal inhibitor]"}, {"molecule": "CCCCC=O", "IkBa stabilization activation": "inactive"}, {"molecule": "Cc1ccc2onc(CC(=O)N3CCN(c4ccc(F)cc4)CC3)c2c1", "IkBa stabilization activation": "inconclusive: 0.866% [signal inhibitor]"}, {"molecule": "CC(C)CC(=O)N1c2nc(C(C)C)nn2C2(CCCCC2)[C@@H]2CCCC[C@@H]21", "IkBa stabilization activation": "inactive"}, {"molecule": "COc1cccc(Cn2c(=O)c(-c3cccs3)nc3cnc(Nc4cccc(OC)c4)nc32)c1", "IkBa stabilization activation": "inactive: 0.673% [at 11.4 µM, scaled: untreated 0%, proteasome inhibitor 100%]"}, {"molecule": "CCOC(=O)c1[nH]c2c(c1Cc1ccccc1C)C(=O)CC(c1cc(OC)ccc1OC)C2", "note": "(stereo not given)", "Potency": "inconclusive: 7.94 µM [signal inhibitor]"}, {"molecule": "Cc1ccc(-c2nc(CS(=O)(=O)CC(=O)N3CCc4ccccc4C3)c(C)o2)cc1", "IkBa stabilization activation": "inconclusive: 8.26% [signal inhibitor]"}, {"molecule": "O=C(COc1ccccc1)NCCc1csc(-c2ccc(Cl)cc2)n1", "IkBa stabilization activation": "inconclusive: -0.0879% [signal inhibitor]"}, {"molecule": "COc1cccc(Cn2c(CNS(=O)(=O)c3ccc(F)c(Cl)c3)nc3cccnc32)c1", "IkBa stabilization activation": "inactive"}, {"molecule": "O=C(CSc1nc2scc(-c3ccco3)c2c(=O)n1-c1ccccc1)N1CCOCC1", "Potency": "inconclusive: 10 µM [rising, partial curve]"}, {"molecule": "CCCCOc1ccc(S(=O)(=O)NCc2csc(C)n2)cc1", "IkBa stabilization activation": "inconclusive: 1.24% [signal inhibitor]"}, {"molecule": "O=S(=O)(NCC(c1cccs1)S(=O)(=O)c1ccccc1)c1ccc(F)cc1", "note": "(stereo not given)", "IkBa stabilization activation": "inactive"}, {"molecule": "CN(C)S(=O)(=O)c1nc(Cl)c2[nH]cnc2n1", "IkBa stabilization activation": "inactive: 0.667% [at 11.4 µM, scaled: untreated 0%, proteasome inhibitor 100%]"}, {"molecule": "Cc1cccc(N2C(N)=C(C#N)C(C#N)(C#N)C2c2ccccc2)c1", "note": "(stereo not given)", "IkBa stabilization activation": "inconclusive: 4.06% [signal inhibitor]"}, {"molecule": "CCOC(=O)c1ccc(NC(=O)C2CCN(S(=O)(=O)c3ccc4c(c3)CCCC(=O)N4)CC2)cc1", "IkBa stabilization activation": "inconclusive: 7.41% [signal inhibitor]"}, {"molecule": "CCOc1ccccc1CNC(=O)c1cc(-c2ccc(Cl)s2)nc2ccccc12", "IkBa stabilization activation": "inactive"}, {"molecule": "CCn1c2ccccc2c2nnc(SCC(=O)Nc3ccccc3OC)nc21", "IkBa stabilization activation": "inactive"}, {"molecule": "Cc1ccccc1-c1nn2c(=O)cc(CN3CCN(C(=O)/C=C/c4ccccc4)CC3)nc2s1", "IkBa stabilization activation": "inconclusive: 2.76% [signal inhibitor]"}, {"molecule": "CCc1ccc(NC(=O)Cn2c(=O)n(CCC(=O)N3CCc4ccccc4C3)c(=O)c3ccccc32)cc1", "IkBa stabilization activation": "inconclusive: 5.72% [signal inhibitor]"}]}]}
